# From PubChem BioAssay (NCATS)
# Inconclusive means that the source gave no clear call. Such entries were picked first, then a sample of the others. Where the call is inconclusive, the potency comes from a doubtful curve fit. Calls of active or inactive are those of the source. The call rests on the fitted dose curve; in most records, active means well fitted cell-killing curve with a large enough effect; inconclusive means small, poorly fitted or top-dose-only effect, or effect the other way; inactive means no such curve, though single readings can be large or run the other way.
# Assay: Viability qHTS for spleen associated tyrosine kinase inhibitor (SYKi) naive MV4-11 cells (AID 1963823); further: nearly all actives have a fitted effect of over 40% in size
# Details: MV4-11 AML viability, CellTiter-Glo luminescence, 72 h; viability (% of control): at 45 µM (top of the series)
# Procedure, shortened: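 CellTiter-Glo luminescence, 10 min room-temperature incubation, gave viability. Cells: naive MV4-11 (500/well), treated 72 hr at 37 C, 5% CO2.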
# Potency means the concentration at half of the fitted maximal effect; tags describe the fitted curve by direction and shape.
Compound,viability (% of control),Potency
CCc1cc(CN2CC(C(=O)O)C2)sc1-c1noc(-c2ccc(Oc3ccccc3)cc2)n1,inactive: 5.54% [at 17.3 µM],–
CC(=O)O[C@H]1[C@H](C)[C@@H](O)[C@H]2[C@@H]1C=C(C(=O)O)[C@H]1C[C@@H]3[C@H]([C@H]21)[C@H]1C(=O)O[C@@H]2CC[C@@]3(C)O[C@]1(O)[C@@H]2C,inactive: 82.6% [at 17.3 µM],–
O=C(O)c1ccc(NC(=O)[C@H](CC2CCCC2)n2cnc(C(F)(F)F)c2)nc1,–,"inconclusive: 14.6 µM [cytotoxic, partial curve, poor fit]"
N#C/C(=C(\N)Sc1ccc(N)cc1)c1ccccc1C(F)(F)F,–,"inconclusive: 8.2 µM [cytotoxic, partial curve]"
CC1=CC(=O)CC(C)(C)C1CCC(C)OC1OC(COC(=O)c2cc(O)c(O)c(O)c2)C(O)C(O)C1O (stereo not given),inactive: 72.8% [at 17.3 µM],–
C[C@@H]1[C@H]2[C@H](O[C@@H]3O[C@H](CO)[C@@H](O)[C@H](O)[C@H]3O)OC=C(C(=O)O)[C@H]2C[C@@H]1O,inactive: 68.6%,–
O=C(O)[C@H](CC(=O)N1C[C@H]2CCCC[C@H]2C1)Cc1ccccc1,–,"inconclusive: 6.51 µM [cytotoxic, single point] and inactive"
CC[C@@H](C)Nc1cc(C(=O)NC2CC3CC[C@@H](C2)N3c2ccc(C(=O)C3CC3)cn2)c(C)cc1C(N)=O (stereo not given in full),–,active: 0.013 µM
Fc1ccc2c(CCNCc3cccc(OCC(F)(F)C(F)F)c3)c[nH]c2c1,–,"inconclusive: 20.6 µM [cytotoxic, single point]"
C=C1C(=O)OC[C@@H]1C/C=C(\C)CC1CC(C)C(=O)O1 (stereo not given in full),–,"inconclusive: 23.1 µM [cytotoxic, partial curve]"
